From the supplement of paper PMC7125110
± gives the standard error. Variants at the floor of the assay are shown more often than the library holds them.

B1: glmS ribozyme (parent)
chain: AUAAAAGCGCCAGAACUACAGAAAUGUAGUUGACGAGGAGGAGGUUUAUCGAAUUUUCGGCGGAUGCCUCCAAA

Legend:
Conditions in all cases: with glucosamine-6-phosphate
glucosamine-6-phosphate [1] = variants of: B1; assay: self-cleavage kobs at 640 uM GlcN6P; higher = faster cleavage; RNA array
Summary of the method: (§1)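 Sequenced MiSeq chips were the platform: E. coli RNA polymerase transcribed barcoded ribozyme variants on them in situ, and a hybridised Cy3 probe tracked these at 37 °C. After glucosamine-6-phosphate (40 μM to 10 mM) in HEPES/KCl/Mg(OAc)2 buffer was flowed in, tiles were imaged over ~14 h. Signals normalised to baseline and to non-cleaving reference variants were reduced to per-tile medians and fit to one- or two-exponential decays to obtain kobs. kcat and KM were derived through weighted Michaelis–Menten fits across concentrations.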

glucosamine-6-phosphate [2] = variants of: B1; assay: self-cleavage kobs at 2500 uM GlcN6P; higher = faster cleavage; RNA array
Summary of the method: as §1

glucosamine-6-phosphate [3] = variants of: B1; assay: self-cleavage kobs at 160 uM GlcN6P; higher = faster cleavage; RNA array
Summary of the method: as §1

glucosamine-6-phosphate [4] = variants of: B1; assay: self-cleavage kobs at 10000 uM GlcN6P; higher = faster cleavage; RNA array
Summary of the method: as §1

| Variant | self-cleavage kobs at 640 uM GlcN6P (glucosamine-6-phosphate [1]) | self-cleavage kobs at 2500 uM GlcN6P (glucosamine-6-phosphate [2]) | self-cleavage kobs at 160 uM GlcN6P (glucosamine-6-phosphate [3]) | self-cleavage kobs at 10000 uM GlcN6P (glucosamine-6-phosphate [4]) |
| --- | --- | --- | --- | --- |
| G32A G41U G51U A53U | < 1e-05 s⁻¹ | – | – | – |
| A33G A36G G38U G40C G59U C67A C71G | < 1e-05 s⁻¹ | < 1e-05 s⁻¹ | – | – |
| G32C G37U G51C | < 1e-05 s⁻¹ | – | – | – |
| A33U A42G U47A A64U | < 1e-05 s⁻¹ | < 1e-05 s⁻¹ | – | – |
| C34A C61U G62A | < 1e-05 s⁻¹ | < 1e-05 s⁻¹ | – | – |
| U31C G37U A48G C61A | < 1e-05 s⁻¹ | – | – | – |
| A33U G37U U45A U55G G66C | < 1e-05 s⁻¹ | < 1e-05 s⁻¹ | – | – |
| A33G G41A C70A | < 1e-05 s⁻¹ | – | < 1e-05 s⁻¹ | – |
| U31G U56G C61A | < 1e-05 s⁻¹ | – | – | – |
| U30C U47A C61G | < 1e-05 s⁻¹ | – | – | – |
| A33G C67G U69C C70U | < 1e-05 s⁻¹ | – | – | – |
| U31A C58U A64C | < 1e-05 s⁻¹ | – | – | – |
| A33C G40A | < 1e-05 s⁻¹ | – | < 1e-05 s⁻¹ | – |
| A33C A52G U65G | < 1e-05 s⁻¹ | < 1e-05 s⁻¹ | – | – |
| A33G G44U | < 1e-05 s⁻¹ | – | < 1e-05 s⁻¹ | < 1e-05 s⁻¹ |
| G32U A42C G51C C67U | < 1e-05 s⁻¹ | – | – | – |
| U30C G37U A39C A48U | < 1e-05 s⁻¹ | – | – | – |
| A33C A48C C71A | < 1e-05 s⁻¹ | < 1e-05 s⁻¹ | – | – |
| G32U A36C G43A A48C C50U | < 1e-05 s⁻¹ | – | – | – |
| A33C C34A U57G | < 1e-05 s⁻¹ | – | – | – |
| U31C G41U | 5.36e-05 ± 1e-05 s⁻¹ | 0.000117 ± 1.7e-05 s⁻¹ | – | – |

| Variant | self-cleavage kobs at 640 uM GlcN6P (glucosamine-6-phosphate [1]) | self-cleavage kobs at 2500 uM GlcN6P (glucosamine-6-phosphate [2]) | self-cleavage kobs at 160 uM GlcN6P (glucosamine-6-phosphate [3]) | self-cleavage kobs at 10000 uM GlcN6P (glucosamine-6-phosphate [4]) |
| --- | --- | --- | --- | --- |
| G32U A39C G41C A64U | < 1e-05 s⁻¹ | – | – | < 1e-05 s⁻¹ |
| C34A G41C G66C C67A C68A | < 1e-05 s⁻¹ | – | – | – |
| U31G G51C U65G | < 1e-05 s⁻¹ | < 1e-05 s⁻¹ | – | – |
| U31G U65G | 0.000375 ± 5.5e-05 s⁻¹ | 0.000924 ± 0.00017 s⁻¹ | 9.35e-05 ± 1.7e-05 s⁻¹ | 0.00184 ± 0.00019 s⁻¹ |
| C34G U56G | < 1e-05 s⁻¹ | – | – | < 1e-05 s⁻¹ |
| G32C A48G C70G | < 1e-05 s⁻¹ | – | – | < 1e-05 s⁻¹ |
| G32U A36G U46A U55C | < 1e-05 s⁻¹ | – | – | – |
| G32C G59U | < 1e-05 s⁻¹ | < 1e-05 s⁻¹ | < 1e-05 s⁻¹ | – |
| G32U G60A | < 1e-05 s⁻¹ | < 1e-05 s⁻¹ | < 1e-05 s⁻¹ | < 1e-05 s⁻¹ |
| A33U A42G C68A | < 1e-05 s⁻¹ | < 1e-05 s⁻¹ | – | – |
| G32A A53U G60A | < 1e-05 s⁻¹ | < 1e-05 s⁻¹ | – | – |
| U31A G35C G37A G62A | < 1e-05 s⁻¹ | – | – | – |
| G32A G44A A64C | < 1e-05 s⁻¹ | – | – | – |
| C34G U57C | < 1e-05 s⁻¹ | – | – | – |
| G32U A33G A36C G37U U49G | < 1e-05 s⁻¹ | – | – | – |
| A33C G35A G41A | < 1e-05 s⁻¹ | < 1e-05 s⁻¹ | – | – |
| C34A G35U | < 1e-05 s⁻¹ | – | < 1e-05 s⁻¹ | – |
| C34A G35A | < 1e-05 s⁻¹ | < 1e-05 s⁻¹ | < 1e-05 s⁻¹ | < 1e-05 s⁻¹ |
| U30G G51A C61U | < 1e-05 s⁻¹ | – | < 1e-05 s⁻¹ | – |
| U31A G60U C71A | < 1e-05 s⁻¹ | < 1e-05 s⁻¹ | – | – |
| G32C G44C A48C C67G | < 1e-05 s⁻¹ | < 1e-05 s⁻¹ | – | – |

| Variant | self-cleavage kobs at 640 uM GlcN6P (glucosamine-6-phosphate [1]) | self-cleavage kobs at 2500 uM GlcN6P (glucosamine-6-phosphate [2]) | self-cleavage kobs at 160 uM GlcN6P (glucosamine-6-phosphate [3]) | self-cleavage kobs at 10000 uM GlcN6P (glucosamine-6-phosphate [4]) |
| --- | --- | --- | --- | --- |
| G32U U46G C61G | < 1e-05 s⁻¹ | – | – | – |
| A33G G41C G63U | < 1e-05 s⁻¹ | – | – | < 1e-05 s⁻¹ |
| C34A A39U C58A | < 1e-05 s⁻¹ | – | < 1e-05 s⁻¹ | – |
| U30G G41A U57C C67U | < 1e-05 s⁻¹ | – | – | – |
| A33C G37A G38C G44A C50U C61U | < 1e-05 s⁻¹ | < 1e-05 s⁻¹ | – | – |
| U30G A33C G40C U54A A64C | < 1e-05 s⁻¹ | < 1e-05 s⁻¹ | – | – |
| G32U A52U C68U | < 1e-05 s⁻¹ | < 1e-05 s⁻¹ | – | – |
| U30G G38A U46G A52U C71U | < 1e-05 s⁻¹ | – | < 1e-05 s⁻¹ | – |
| G32U G60U C70U | < 1e-05 s⁻¹ | < 1e-05 s⁻¹ | – | – |
| U31A A36G C68U | < 1e-05 s⁻¹ | – | – | – |
| G32A U46G C61G | < 1e-05 s⁻¹ | < 1e-05 s⁻¹ | – | – |
| U31C U65C | 3.88e-05 ± 1.4e-05 s⁻¹ | 4.75e-05 ± 9.5e-06 s⁻¹ | – | 4.78e-05 ± 6.9e-06 s⁻¹ |
| C34A U56A G60U | < 1e-05 s⁻¹ | – | < 1e-05 s⁻¹ | – |
| A33C G35C C68G | < 1e-05 s⁻¹ | – | – | – |
| U31A C34A | < 1e-05 s⁻¹ | – | – | < 1e-05 s⁻¹ |
| U31C G41A G59U | < 1e-05 s⁻¹ | < 1e-05 s⁻¹ | < 1e-05 s⁻¹ | – |
| A33C U65A | < 1e-05 s⁻¹ | – | – | – |
| A33G A53U U54G U56A G60U | < 1e-05 s⁻¹ | – | – | < 1e-05 s⁻¹ |
| A33U G59C G63U | < 1e-05 s⁻¹ | < 1e-05 s⁻¹ | – | – |
| G32C G35U A64U U69A | < 1e-05 s⁻¹ | – | < 1e-05 s⁻¹ | – |
| A33C G44C C58U C61A | < 1e-05 s⁻¹ | – | – | – |
